# Laboratory results from PubChem BioAssay (NCATS).
# “And” between values parts separate entries of the source, which are not always exact repeats. Equal values may be shown once. This list was built around the results that the source calls inconclusive (neither active nor inactive); the mix of calls is not that of the screen. Potencies of inconclusive entries are doubtful fits and often do not repeat. The source made the active and inactive calls. The call rests on the fitted dose curve; in most records, active means well fitted curve in the direction sought with a large enough effect; inconclusive means small, poorly fitted or top-dose-only effect, or another doubt; inactive means no such curve, though single readings can be large; an effect the other way counts as inactive or inconclusive.
# Tests used:
# [1] = tested on: UISO; experiment: qHTS assay to identify novel small-molecules to repurpose for Merkel cell carcinoma treatment (AID 1296009); settings: MCC and control cell lines, CellTiter-Glo viability, 72 h; series mostly up to 46 µM; further: nearly all actives have a fitted effect of over 60% in size
# Procedure, shortened: (§1)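 qHTS format: cells treated with library compounds in DMSO across 8 (NPC) or 11 (MIPE) concentrations. Readout after 72 hr at 37 degree celsius was CellTiter-Glo luminescence.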
# [2] = tested on: MKL-2; experiment: as above; settings: MCC and control cell lines, CellTiter-Glo viability, 72 h; series mostly up to 46 µM
# Procedure, shortened: as §1
# [3] = tested on: WaGa; experiment: as above; settings: MCC and control cell lines, CellTiter-Glo viability, 72 h; series mostly up to 46 µM
# Procedure, shortened: as §1
# [4] = tested on: C33A; experiment: Primary qHTS to identify gynecologic anti-cancer compounds using libraries of approved drugs and bioactive compounds (AID 1345084); settings: Gynecologic cancer cell panel viability, ATPlite luminescence, 48 h; series mostly up to 57.5 µM; further: nearly all actives have a fitted effect of over 55% in size
# Procedure, shortened: (§2)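 Five-point cytotoxicity, 48 h drug exposure at 37 C, 5% CO2, on cells seeded 16 h beforehand. ATP content read by ATPlite luminescence.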
# [5] = tested on: CAOV3; experiment: as above; settings: Gynecologic cancer cell panel viability, ATPlite luminescence, 48 h; series mostly up to 57.5 µM
# Procedure, shortened: as §2
# Potency means the concentration at half of the fitted maximal effect; tags describe the fitted curve by direction and shape.
structure (smiles),measurement,setting,value
NC(=O)c1cnccn1,Potency,[1],inactive
CCCOc1ccc(C(=O)OCCN(CC)CC)cc1N,Potency,[1],inactive
CCNC(=O)[C@H]1O[C@@H](n2cnc3c(N)nc(NCCc4ccc(CCC(=O)O)cc4)nc32)[C@H](O)[C@H]1O,Potency,[1],inactive
O=C1NC(O)CCN1[C@@H]1O[C@H](CO)[C@H](O)[C@H]1O (stereo not given in full),Potency,[1],inactive
Clc1ccc(COC(Cn2ccnc2)c2ccc(Cl)cc2Cl)c(Cl)c1 (stereo not given),Potency,[1],"inconclusive: 33.2 µM [inhibitor, single point]"
c1cc(N[C@@H]2CCNC2)nc(-c2cnc3ccc(-c4cn[nH]c4)cn23)c1,Potency,[2],active: 7.43 µM
same,Potency,[3],"inconclusive: 3.32 µM [inhibitor, partial curve]"
same,Potency,[4],"inconclusive: 8.91 µM [cytotoxic, partial curve, poor fit]"
same,Potency,[5],"inconclusive: 3.16 µM [cytotoxic, full curve]"
Cc1cc2nc3c(=O)[nH]c(=O)nc-3n(CC(O)C(O)C(O)CO)c2cc1C (stereo not given),Potency,[1],inactive
C[C@]12C=CC(=O)C=C1CC[C@@H]1[C@@H]2C(=O)C[C@@]2(C)[C@H]1CC[C@]2(O)C(=O)CO,Potency,[2],"inconclusive: 18.2 µM [inhibitor, single point]"
same,Potency,[1],inactive
same,Potency,[3],"inconclusive: 12.9 µM [inhibitor, single point]"
CC(C)OC(=O)OCOP(=O)(CO[C@H](C)Cn1cnc2c(N)ncnc21)OCOC(=O)OC(C)C,Potency,[1],"inconclusive: 18.7 µM [inhibitor, partial curve] and inconclusive: 13.3 µM [inhibitor, partial curve]"
same,Potency,[3],"inconclusive: 18.8 µM [inhibitor, single point]"
C#CCN(C)CC1=Cc2ccccc2Oc2ccccc21,Potency,[1],"inconclusive: 23.5 µM [inhibitor, single point]"
Nc1nc(N)nc(-c2cc(Cl)ccc2Cl)n1,Potency,[1],inactive
Cc1c(C(=O)NN2CCCCC2)nn(-c2ccc(Cl)cc2Cl)c1-c1ccc(Cl)cc1,Potency,[2],"inconclusive: 26.6 µM [inhibitor, single point]"
same,Potency,[1],"inconclusive: 21.1 µM [inhibitor, single point] and inconclusive: 20.9 µM [inhibitor, partial curve]"
same,Potency,[3],"inconclusive: 29.9 µM [inhibitor, single point]"
